Whole data set: some 33,000 sequences, median “E-score (-0.5 to 0.5)” near -0.016, cut for the highest 2% near 0.31. This is one part of the list.
biological target: Cst6 (UniProt P40535); experiment: PBM E-score (8-mer binding enrichment) (E-score (-0.5 to 0.5)); higher = stronger / more preferred TF binding; most listed sequences are background and not binding sites; conditions: protein concentration: 200 nM; construct: GST-DNA-binding domain
Method in brief: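 Masliner-normalised scans of fluorescent anti-GST signal were the basis for scoring. That signal came from GST-tagged yeast transcription factors applied at about 100-200 nM to double-stranded universal all-10-mer Agilent arrays on fresh or once-stripped slides. Each ungapped eight-base word, pooled with its reverse complement, received an E-score from the Universal PBM Analysis Suite.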

| Sequence | PBM E-score |
| --- | --- |
| ACTACGCA | -0.0194 |
| CAGAGAGC | -0.216 |
| AACGGGCC | -0.0834 |
| TGACACAA | 0.253 |
| AATGTGTC | 0.1 |
| CCATCCCA | -0.0649 |
| CGTTCTCA | -0.0164 |
| CCCTTAGA | -0.181 |
| AAGCGCGG | -0.0171 |
| ATGAGGAA | 0.122 |
| CCAAGCGA | -0.309 |
| CATGCGGC | 0.33 |
| ATAGCAAA | 0.133 |
| GTATGAGA | -0.00664 |
| GCAAGCCC | -0.15 |
| ATACTGCG | -0.131 |
| AGTCACAA | 0.192 |
| CATGGTCC | -0.0826 |
| CCCGACAC | -0.299 |
| CAAGTTGG | 0.0964 |
| ATCCCATA | -0.0649 |
| CGGAAAAG | -0.0314 |
| AACCAGCA | -0.228 |
| CTAGAGCC | -0.145 |
| CCACAACC | 0.0117 |

| Sequence | PBM E-score |
| --- | --- |
| AAGAGAGT | -0.137 |
| GCGTGAGA | 0.13 |
| ATTTTTGC | 0.266 |
| AACCTTTC | -0.233 |
| ATTGTCGG | -0.0558 |
| CATCCTGC | -0.0651 |
| GCGATTAC | 0.184 |
| GACCGCGA | -0.138 |
| CCACTCAC | -0.085 |
| CCTTAATA | 0.0735 |
| GATGCATA | 0.0137 |
| ACTGGTGA | -0.0583 |
| CCCCCCCA | -0.339 |
| CACTCTCC | -0.189 |
| CAAGATAG | -0.0558 |
| GGTACAGA | 0.00161 |
| CCTCCCGC | -0.155 |
| ACAGGACC | -0.205 |
| GCGAGACC | -0.0721 |
| ACTTGTTC | -0.0606 |
| GCTGACCA | -0.124 |
| GAAGAACC | -0.119 |
| AATGAATT | 0.245 |
| AGCACGAG | -0.109 |
| GGTATCAA | -0.133 |

| Sequence | PBM E-score |
| --- | --- |
| CGAGAACG | 0.0398 |
| AGGGATCC | -0.409 |
| ATGTCGCG | 0.118 |
| CAGGTACC | -0.165 |
| AGTCTGCG | -0.341 |
| GAAGCGTC | 0.0576 |
| GAACGGGC | -0.257 |
| CCTCCTCG | 0.094 |
| CACGCAGA | -0.0519 |
| TATGGGAA | -0.0855 |
| AAAAACGA | 0.214 |
| ACTACAAC | 0.0641 |
| TCTCCGCA | -0.103 |
| AGCATCCC | -0.29 |
| CACATGGG | -0.234 |
| AGACCGAT | -0.0796 |
| GTTGGGGA | -0.141 |
| AGTGGGTA | -0.282 |
| CAAATTAG | 0.147 |
| AAATGTTA | 0.182 |
| GGGCTGCA | -0.219 |
| GGCTGTAC | -0.17 |
| ATCGACCC | 0.00171 |
| AAGGATGG | 0.0503 |
| GGTAATGA | 0.213 |

| Sequence | PBM E-score |
| --- | --- |
| AGGTCAAC | -0.0368 |
| CCTGGCCA | -0.276 |
| ATCGTCGA | -0.0032 |
| GCTAGAAC | -0.216 |
| CGTCCGCC | -0.111 |
| GATGCGGA | 0.0439 |
| CCTGGAAC | -0.0991 |
| GGGTGCAC | -0.191 |
| CCAGATCA | 0.181 |
| GTCTCTCA | -0.0353 |
| ATAATACC | 0.147 |
| CTGATTTC | 0.195 |
| CAGGGCCA | -0.213 |
| AACGCTAT | 0.00602 |
| ACGATCCT | -0.118 |
| CTCAGCCA | -0.148 |
| TAATAAAA | 0.316 |
| GCCAAAAC | 0.00644 |
| CACACCCG | -0.0928 |
| CGAATGCG | 0.03 |
| ACTGTCCC | -0.222 |
| AAGAGGGC | -0.0691 |
| TAGTCGCA | -0.167 |
| AGACAGTC | -0.214 |
| AACTGAAG | 0.0725 |

| Sequence | PBM E-score |
| --- | --- |
| TCAAGGCA | -0.152 |
| GCAATGGC | -0.239 |
| CCTCGGAG | -0.085 |
| AGCCAGAA | -0.0481 |
| AGGTCCAA | -0.272 |
| CAGGATAA | 0.0316 |
| AACGGATT | 0.269 |
| CAATATTC | -0.0581 |
| CCAGGAAC | -0.362 |
| ATGCGGGG | -0.0792 |
| CTCATTTA | 0.141 |
| GCTTGAAC | 0.0764 |
| CATCAGAG | 0.129 |
| CCGGCGGA | -0.0852 |
| ACCGATAG | -0.104 |
| CCGGACCG | -0.165 |
| TACAAAGA | 0.0617 |
| AGCAATCC | -0.179 |
| ACGTTGTA | 0.141 |
| GGGACACC | -0.314 |
| CAAGTGCC | 0.0401 |
| CTCGGGAC | -0.143 |
| ACTGGGCG | -0.235 |
| ACGGTGCA | -0.0869 |
| TACTGTGA | 0.00812 |

| Sequence | PBM E-score |
| --- | --- |
| ATAACCAG | 0.144 |
| ATCGCCAG | -0.0857 |
| AAGCGTAG | -0.223 |
| AATGAGAT | 0.231 |
| CCAAAGAC | -0.095 |
| TAAGTCCA | -0.0847 |
| ACACAAGT | -0.0442 |
| ATTCTCTA | 0.155 |
| CCAGATGC | -0.189 |
| GACGCCCC | -0.00249 |
| ATATCAGA | 0.179 |
| TCCTCCGA | -0.395 |
| GTAGATAA | 0.218 |
| CGTGTTTC | 0.00951 |
| TCGCCGAA | 0.185 |
| CTTAAGTA | 0.0395 |
| CCAATTCA | 0.126 |
| GGTAAATA | 0.0885 |
| ACGGAGGG | -0.145 |
| CCTGTACA | -0.0547 |
| AGTTACCA | -0.0424 |
| AGCATGGC | -0.136 |
| CATGTGCA | -0.0964 |
| CGCAAGAC | -0.142 |
| GCGGGATA | -0.0401 |

| Sequence | PBM E-score |
| --- | --- |
| AGGAGACG | -0.174 |
| CCACACAG | -0.0337 |
| ATACATAA | 0.258 |
| GCCATATA | 0.123 |
| AGCGATCC | -0.0782 |
| AGCTCCCT | -0.282 |
| GCTCTGGA | -0.107 |
| CAGGCATG | -0.00473 |
| AACGATGT | 0.102 |
| CAGCGACG | -0.06 |
| GCTAGACC | -0.299 |
| CATAGAAA | 0.22 |
| GTTACGTA | 0.46 |
| ATGCAGGA | -0.153 |
| CAATTAGA | 0.0829 |
| CACGTGAC | 0.148 |
| CCATCGGC | -0.2 |
| CTCTTCAC | -0.089 |
| AATAATCA | 0.209 |
| GCTTTTGA | -0.129 |
| CATCATGG | 0.249 |
| AGCTCCAG | -0.228 |
